The experiment deals with T1, human GPR20 (human, UniProt Q99678 1-358).
T1 construct: 358 amino acids, NCBI NP_005284; also called hGPR20; human GPR20 protein (NP_005284)
T1 sequence: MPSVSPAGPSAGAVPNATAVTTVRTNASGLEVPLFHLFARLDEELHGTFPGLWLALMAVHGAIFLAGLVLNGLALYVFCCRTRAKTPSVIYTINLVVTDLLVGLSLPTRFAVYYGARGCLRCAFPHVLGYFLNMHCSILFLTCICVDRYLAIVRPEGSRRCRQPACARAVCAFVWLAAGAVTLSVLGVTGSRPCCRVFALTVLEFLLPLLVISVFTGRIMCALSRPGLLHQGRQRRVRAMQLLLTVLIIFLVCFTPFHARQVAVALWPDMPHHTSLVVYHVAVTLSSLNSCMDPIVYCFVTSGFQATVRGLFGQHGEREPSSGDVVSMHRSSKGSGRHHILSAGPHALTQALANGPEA
Kind of experiment: flow cytometry on 293T cells transfected with pcDNA3.1-hGPR20. The procedure: The cells were cultured overnight under conditions of 37° C. and 5% CO₂, and thereafter, a cell suspension was prepared. To the obtained cell suspension, each humanized anti-GPR20 antibody was added, and the obtained mixture was left standing at 4° C. for 1 hour. […] The cells were left standing at 4° C. for 1 hour. The cells were washed twice with PBS supplemented with 5% FBS, and then re-suspended in PBS supplemented with 5% FBS, followed by detection using a flow cytometer (BD FACSCant II; BD Biosciences). The data was analyzed using Flowjo (Tree Star, Inc.). […] In the histograms of FIG. 24, the abscissa depicts the fluorescence intensity of PE indicating the amount of the antibody bound, and the ordinate depicts a cell count.
On the technique in general: A flow cytometer gives signals particle by particle.

Changes are numbered by the printed parent chain.

B1: humanized h046-H8/L1 (antibody, human IgG1, kappa)
heavy: QVQLQQSGAELAKPGSSVKISCKASGYTFTSYYISWIKQTTGQGLKYIGFINPGSGHTNYNEKFKGKATLTVDKSSSTANMQLSSLTPDDSAIYYCARGAGGFLRIITKFDYWGQGVMVTVSSASTKGPSVFPLAPSSKSTSGGTAALGCLVKDYFPEPVTVSWNSGALTSGVHTFPAVLQSSGLYSLSSVVTVPSSSLGTQTYICNVNHKPSNTKVDKRV[letters of human IgG1 Fc omitted]
light: DIQMTQSPSSLSASVGDRVTITCRASKSVSTYIHWYQQKPGKAPKLLIYSASNLESGVPSRFSGSGSGTDFTLTISSLQPEDFATYYCQQINELPYTFGQGTKVEIKRTVAAPSVFIFPPSDEQLKSGTASVVCLLNNFYPREAKVQWKVDNALQSGNSQESVTEQDSKDSTYSLSSTLTLSKADYEKHKVYACEVTHQGLSSPVTKSFNRGEC
notes: the claims and summary say 20 to 474
In the case of B1, the binding result was “binds”.

B2: humanized h046-H10/L1 (antibody, human IgG1, kappa)
heavy: B1 heavy with I20V
light: B1 light
notes: as for B1
On to B2, for which the binding result is listed as “binds”.

These data come from patent US20190225686A1 (Daiichi Sankyo, published 2019).
